# Results published in patent US20120052069A1 (Amgen, published 2012).
# Target: β-Klotho overexpressed in recombinant human 293T kidney cells
# Experiment: cell-based or functional assay
"EC50 (nM), ELK luciferase assay [nM]","Efficacy, ELK luciferase assay [%]",Binder
6.1,85.9,"hFc-(L15)-hFGF21(L98R, P171G, P182) (Fc fusion) [letters of human IgG1 Fc left out]GGGGGSGGGSGGGGSHPIPDSSPLLQFGGQVRQRYLYTDDAQQTEAHLEIREDGTVGGAADQSPESLLQLKALKPGVIQILGVKTSRFLCQRPDGALYGSLHFDPEACSFRERLLEDGYNVYQSEAHGLPLHLPGNKSPHRDPAPRGPARFLPLPGLPPAPPEPPGILAPQPPDVGSSDPLSMVGGSQGRSPSYASP"
6.5,71.1,"hFc-(L15)-hFGF21(L98R, P171G, G182) (Fc fusion) [letters of human IgG1 Fc left out]GGGGGSGGGSGGGGSHPIPDSSPLLQFGGQVRQRYLYTDDAQQTEAHLEIREDGTVGGAADQSPESLLQLKALKPGVIQILGVKTSRFLCQRPDGALYGSLHFDPEACSFRERLLEDGYNVYQSEAHGLPLHLPGNKSPHRDPAPRGPARFLPLPGLPPAPPEPPGILAPQPPDVGSSDPLSMVGGSQGRSPSYASG"
2.5,76.1,"Fc-(L15)-FGF21 (L98R, P171G) (Fc fusion) [letters of human IgG1 Fc left out]GGGGGSGGGSGGGGSHPIPDSSPLLQFGGQVRQRYLYTDDAQQTEAHLEIREDGTVGGAADQSPESLLQLKALKPGVIQILGVKTSRFLCQRPDGALYGSLHFDPEACSFRERLLEDGYNVYQSEAHGLPLHLPGNKSPHRDPAPRGPARFLPLPGLPPAPPEPPGILAPQPPDVGSSDPLSMVGGSQGRSPSYAS"
43.2,79.6,"hFc-(L15)-hFGF21(L98R, P171G, Y179A) (Fc fusion) [letters of human IgG1 Fc left out]GGGGGSGGGSGGGGSHPIPDSSPLLQFGGQVRQRYLYTDDAQQTEAHLEIREDGTVGGAADQSPESLLQLKALKPGVIQILGVKTSRFLCQRPDGALYGSLHFDPEACSFRERLLEDGYNVYQSEAHGLPLHLPGNKSPHRDPAPRGPARFLPLPGLPPAPPEPPGILAPQPPDVGSSDPLSMVGGSQGRSPSAAS"
2.18,84.7,"hFc-(L15)-hFGF21(L98R, P171G, A180S) (Fc fusion) [letters of human IgG1 Fc left out]GGGGGSGGGSGGGGSHPIPDSSPLLQFGGQVRQRYLYTDDAQQTEAHLEIREDGTVGGAADQSPESLLQLKALKPGVIQILGVKTSRFLCQRPDGALYGSLHFDPEACSFRERLLEDGYNVYQSEAHGLPLHLPGNKSPHRDPAPRGPARFLPLPGLPPAPPEPPGILAPQPPDVGSSDPLSMVGGSQGRSPSYSS"
1.9,79.6,"Fc-(L15)-FGF21 (L98R, P171G, A180E) (Fc fusion) [letters of human IgG1 Fc left out]GGGGGSGGGSGGGGSHPIPDSSPLLQFGGQVRQRYLYTDDAQQTEAHLEIREDGTVGGAADQSPESLLQLKALKPGVIQILGVKTSRFLCQRPDGALYGSLHFDPEACSFRERLLEDGYNVYQSEAHGLPLHLPGNKSPHRDPAPRGPARFLPLPGLPPAPPEPPGILAPQPPDVGSSDPLSMVGGSQGRSPSYES"
25.3,74.8,"hFc-(L15)-hFGF21(L98R, P171G, Y179S) (Fc fusion) [letters of human IgG1 Fc left out]GGGGGSGGGSGGGGSHPIPDSSPLLQFGGQVRQRYLYTDDAQQTEAHLEIREDGTVGGAADQSPESLLQLKALKPGVIQILGVKTSRFLCQRPDGALYGSLHFDPEACSFRERLLEDGYNVYQSEAHGLPLHLPGNKSPHRDPAPRGPARFLPLPGLPPAPPEPPGILAPQPPDVGSSDPLSMVGGSQGRSPSSAS"
3.25,76.9,"hFc-(L15)-hFGF21(L98R, P171G, A180G) (Fc fusion) [letters of human IgG1 Fc left out]GGGGGSGGGSGGGGSHPIPDSSPLLQFGGQVRQRYLYTDDAQQTEAHLEIREDGTVGGAADQSPESLLQLKALKPGVIQILGVKTSRFLCQRPDGALYGSLHFDPEACSFRERLLEDGYNVYQSEAHGLPLHLPGNKSPHRDPAPRGPARFLPLPGLPPAPPEPPGILAPQPPDVGSSDPLSMVGGSQGRSPSYGS"
2.6,78.3,"hFc-(L15)-hFGF21(L98R, P171G, Y179F) (Fc fusion) [letters of human IgG1 Fc left out]GGGGGSGGGSGGGGSHPIPDSSPLLQFGGQVRQRYLYTDDAQQTEAHLEIREDGTVGGAADQSPESLLQLKALKPGVIQILGVKTSRFLCQRPDGALYGSLHFDPEACSFRERLLEDGYNVYQSEAHGLPLHLPGNKSPHRDPAPRGPARFLPLPGLPPAPPEPPGILAPQPPDVGSSDPLSMVGGSQGRSPSFAS"
1940,84.2,"hFc-(L15)-hFGF21(L98R, P171G, GG182-3) (Fc fusion) [letters of human IgG1 Fc left out]GGGGGSGGGSGGGGSHPIPDSSPLLQFGGQVRQRYLYTDDAQQTEAHLEIREDGTVGGAADQSPESLLQLKALKPGVIQILGVKTSRFLCQRPDGALYGSLHFDPEACSFRERLLEDGYNVYQSEAHGLPLHLPGNKSPHRDPAPRGPARFLPLPGLPPAPPEPPGILAPQPPDVGSSDPLSMVGGSQGRSPSYASGG"
